Experimental data as given in article PMC4245960 (Nucleic Acids Research, 2014).

Target: T1, His-EngA (Escherichia coli EngA, His-tag containing version) (E. coli, UniProt P0A6P5 1-490)
T1 sequence (looked up): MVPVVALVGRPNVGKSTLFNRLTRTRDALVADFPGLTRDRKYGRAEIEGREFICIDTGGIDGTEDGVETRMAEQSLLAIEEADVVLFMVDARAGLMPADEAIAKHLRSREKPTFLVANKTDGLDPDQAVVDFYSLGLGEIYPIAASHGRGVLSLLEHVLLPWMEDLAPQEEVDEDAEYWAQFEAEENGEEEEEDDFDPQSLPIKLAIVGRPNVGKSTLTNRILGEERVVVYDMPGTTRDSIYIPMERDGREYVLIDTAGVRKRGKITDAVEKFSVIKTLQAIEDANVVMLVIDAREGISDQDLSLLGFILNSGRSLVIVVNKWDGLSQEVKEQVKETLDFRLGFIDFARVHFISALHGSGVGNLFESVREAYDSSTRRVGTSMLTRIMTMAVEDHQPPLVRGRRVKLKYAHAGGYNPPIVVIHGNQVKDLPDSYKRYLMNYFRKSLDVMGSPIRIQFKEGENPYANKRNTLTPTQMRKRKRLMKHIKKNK
Assay: cryo-EM structure

binding result: binds
B1: ribosomal protein L1 (in the 50S subunit) (natural protein)
chain: not shown
